{"source": "PubChem BioAssay AID445", "about": "(National Center for Advancing Translational Sciences (NCATS), 2006)", "note": "Out of some 110,000 compounds screened, about 40 (0.04%) were called active. Inconclusive results, whose numbers are uncertain, are shown with a selection of clear calls. Calls come from the whole dose curve; as a rule, active = well fitted curve in the direction sought with a large enough effect in the signal ratio (not every such curve was filed as active); inconclusive = small, poorly fitted or top-dose-only effect, or a change in a side signal; inactive = flat fitted curve, though single readings scatter; the % refers to the signal ratio. Potencies of inconclusive entries are doubtful fits and often do not repeat. Potency is the fitted concentration of half-maximal effect."}
{"test": "IkB Signaling;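 for IkBa stabilization activation: 0% = basal untreated cells and 100% = reference inhibitor full response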", "conditions": "ABC-DLBCL IkBa-CBG/CBR dual luciferase ratio (green luciferase fused to IkBa over red control in OCI-Ly3 lymphoma cells), 4 h; IkBa stabilization activation: at 57.1 µM (top of the series), scaled: untreated 0%, proteasome inhibitor 100% unless noted", "how_it_was_run": "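Luminescence ratio of IκBα-fused green versus native red beetle luciferase in OCI-Ly3 cells, 4 h post-doxycycline with compound; red signal alone, scaled from basal (0%) to zero light (-100%), flagged nonspecific or cytotoxic effects.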"}
{"smiles": "COc1ccc(C(=O)CC2(O)C(=O)N(Cc3ccccc3Cl)c3ccccc32)cc1", "note": "(stereo not given)", "IkBa stabilization activation": "inconclusive: 9.58% [signal inhibitor]"}
{"smiles": "O=C(CCCCCn1c(SCc2ccncc2)nc2ccccc2c1=O)NCc1ccco1", "IkBa stabilization activation": "inconclusive: 0.885% [signal inhibitor]"}
{"smiles": "CC(C)c1nc2oc3c(NCc4ccccn4)ncnc3c2c2c1COC(C)(C)C2", "IkBa stabilization activation": "inactive: -0.137%"}
{"smiles": "CC(C)c1ccc(CNc2nc(-c3ccco3)nn2S(=O)(=O)c2ccc3ccccc3c2)cc1", "IkBa stabilization activation": "inconclusive: 0.271% [signal inhibitor]"}
{"smiles": "O=C(CSc1nc(-c2ccccc2)cs1)NC(=O)NCc1ccco1", "Potency": "inconclusive: 25.1 µM [signal inhibitor, single point]"}
{"smiles": "CCCS(=O)(=O)c1ncc(Cl)c(C(=O)Nc2scc(-c3ccccc3)c2C(=O)OCC)n1", "Potency": "inconclusive: 3.16 µM [signal inhibitor]"}
{"smiles": "Cc1ccccc1-c1ccc2ncnc(NCc3cccs3)c2c1", "IkBa stabilization activation": "inactive: 2.75% [at 11.4 µM, scaled: untreated 0%, proteasome inhibitor 100%]"}
{"smiles": "COc1ccc(C)cc1-n1nnnc1SCn1nnc2ccccc2c1=O", "IkBa stabilization activation": "inactive: 1.02%"}
{"smiles": "O=S(=O)(c1ccccc1)c1nc(-c2ccc(Cl)cc2Cl)oc1N1CCCCCC1", "IkBa stabilization activation": "inconclusive: 3.23% [signal inhibitor]"}
{"smiles": "CCc1ccc(C2CC(c3ccccc3Cl)Nc3nc(N)nn32)cc1", "note": "(stereo not given)", "IkBa stabilization activation": "inactive: -4.35%"}
{"smiles": "O=C(c1ccncc1)N1CCC2(CCCN(c3ccccn3)C2)CC1", "IkBa stabilization activation": "inactive: 1.14% [at 11.4 µM, scaled: untreated 0%, proteasome inhibitor 100%]"}
{"smiles": "CCCC(=O)NCCc1cc2c(C)ccc(C)c2[nH]c1=O", "IkBa stabilization activation": "inactive: 1.35%"}
{"smiles": "CCOC(=O)N1CCc2c(sc3c2c(=O)n(Cc2ccccc2)c(=O)n3Cc2c(F)cccc2Cl)C1", "IkBa stabilization activation": "inactive: 0.378%"}
{"smiles": "O=C1CC(c2nc3ccccc3n2Cc2c(F)cccc2Cl)CN1c1cccc(C(F)(F)F)c1", "note": "(stereo not given)", "IkBa stabilization activation": "inconclusive: 3.25% [signal inhibitor]"}
{"smiles": "O=C(N1CCCCC1)C1(c2ccccc2)CCOCC1", "IkBa stabilization activation": "inactive: 0.539%"}
{"smiles": "CCCCNc1cc(C)oc(=O)c1C(C)=O", "IkBa stabilization activation": "inactive: -0.761%"}
{"smiles": "COc1ccc(NC(=O)CC2C(=O)N(c3ccc(C)cc3)C(=O)N2CCc2ccccc2)cc1", "note": "(stereo not given)", "IkBa stabilization activation": "inconclusive: 1.72% [signal inhibitor]"}
{"smiles": "Cc1nc2ccn(Cc3ccco3)c(=O)c2cc1C(=O)N1CCN(c2ccccc2F)CC1", "IkBa stabilization activation": "inconclusive: 1.22% [signal inhibitor]"}
{"smiles": "COc1ccc2c(c1)c1c(c(=O)n(Cc3ccccc3)c(=O)n1Cc1cc(C)ccc1C)n2C", "IkBa stabilization activation": "inactive: -1.83%"}
{"smiles": "CCOC(=O)C1CCCN(CC(=O)Nc2c(C(=O)OC)[nH]c3ccc(Br)cc23)C1", "note": "(stereo not given)", "IkBa stabilization activation": "inconclusive: 1.17% [signal inhibitor]"}
